This is one part of the list. The list includes weakly bound sequences.
These sequences were tested against T1, MBP-FoxP3dN (UniProt Q99JB6) (assay: PD-seq (MBP pull-down with sequencing)). Conditions: 20 mM Tris-HCl pH 7.5, 100 mM NaCl, 1.5 mM MgCl2, 0.4 uM protein, 0.1 uM dsDNA library, 30 min, room temperature, amylose pull-down; high values mean tight binding; double strand, one strand shown.
T1 sequence: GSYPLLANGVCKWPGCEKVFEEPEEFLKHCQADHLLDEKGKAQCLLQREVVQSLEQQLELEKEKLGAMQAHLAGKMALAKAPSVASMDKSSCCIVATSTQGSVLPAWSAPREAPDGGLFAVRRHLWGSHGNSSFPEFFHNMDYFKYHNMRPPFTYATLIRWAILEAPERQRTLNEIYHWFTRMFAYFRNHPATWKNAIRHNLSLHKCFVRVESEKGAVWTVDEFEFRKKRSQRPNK

**Q.** With “GATGATTGTTCTCCCAGCTGATGAATTGGGGATGTCGAGTAAACAAATTTTCCTAATCTTTCTGTTCAAGCGCCATCTAC” as the sequence, how does the binding signal (RPM ratio (pull-down/input)) read?
**A.** Its binding signal (RPM ratio (pull-down/input)) is 0.46.

**Q.** With “GATGATTGTTCTCCCAGCTGATGAATTCGGAGGGTCGAGTAAACAAATTTTCCTAATCTTTCTGTTCAAGCGCCATCTAC” as the sequence, how does the binding signal (RPM ratio (pull-down/input)) read?
**A.** The binding signal (RPM ratio (pull-down/input)) was 0.294.

**Q.** With “GATGATTGTTCTCCCAGCTGATGAATTTGGAGGTTCGAGTAAACAAATTTTCCTAATCTTTCTGTTCAAGCGCCATCTAC” as the sequence, how does the binding signal (RPM ratio (pull-down/input)) read?
**A.** Its binding signal (RPM ratio (pull-down/input)) is 0.418.

**Q.** “GATGATTGTTCTCCCAGCTGATGAATTGACGTTGTCGAGTAAACAAATTTTCCTAATCTTTCTGTTCAAGCGCCATCTAC” was tested. Which binding signal (RPM ratio (pull-down/input)) did it give?
**A.** Its binding signal (RPM ratio (pull-down/input)) is 0.736.

**Q.** How did the binding signal (RPM ratio (pull-down/input)) turn out when “GATGATTGTTCTCCCAGCTGATGAATTGTTTTTATCGAGTAAACAAATTTTCCTAATCTTTCTGTTCAAGCGCCATCTAC” was run?
**A.** The binding signal (RPM ratio (pull-down/input)) was 3.74.

**Q.** For “GATGATTGTTCTCCCAGCTGATGAATTTTGCTTATCGAGTAAACAAATTTTCCTAATCTTTCTGTTCAAGCGCCATCTAC”, which binding signal (RPM ratio (pull-down/input)) is on record?
**A.** The binding signal (RPM ratio (pull-down/input)) was 6.46.

**Q.** With “GATGATTGTTCTCCCAGCTGATGAATTTTAATGATCGAGTAAACAAATTTTCCTAATCTTTCTGTTCAAGCGCCATCTAC” as the sequence, how does the binding signal (RPM ratio (pull-down/input)) read?
**A.** The binding signal (RPM ratio (pull-down/input)) was 0.873.

**Q.** Which binding signal (RPM ratio (pull-down/input)) does the source give for “GATGATTGTTCTCCCAGCTGATGAATTATACTCTTCGAGTAAACAAATTTTCCTAATCTTTCTGTTCAAGCGCCATCTAC” here?
**A.** Its binding signal (RPM ratio (pull-down/input)) is 0.438.

**Q.** Which binding signal (RPM ratio (pull-down/input)) does the source give for “GATGATTGTTCTCCCAGCTGATGAATTTGTGTACTCGAGTAAACAAATTTTCCTAATCTTTCTGTTCAAGCGCCATCTAC” here?
**A.** Its binding signal (RPM ratio (pull-down/input)) is 6.72.

**Q.** With “GATGATTGTTCTCCCAGCTGATGAATTGGCCTTCTCGAGTAAACAAATTTTCCTAATCTTTCTGTTCAAGCGCCATCTAC” as the sequence, how does the binding signal (RPM ratio (pull-down/input)) read?
**A.** The binding signal (RPM ratio (pull-down/input)) was 0.865.

**Q.** For “GATGATTGTTCTCCCAGCTGATGAATTGTCCATGTCGAGTAAACAAATTTTCCTAATCTTTCTGTTCAAGCGCCATCTAC”, which binding signal (RPM ratio (pull-down/input)) is on record?
**A.** Its binding signal (RPM ratio (pull-down/input)) is 0.38.

**Q.** With “GATGATTGTTCTCCCAGCTGATGAATTCCGTCCGTCGAGTAAACAAATTTTCCTAATCTTTCTGTTCAAGCGCCATCTAC” as the sequence, how does the binding signal (RPM ratio (pull-down/input)) read?
**A.** Its binding signal (RPM ratio (pull-down/input)) is 0.369.

**Q.** For “GATGATTGTTCTCCCAGCTGATGAATTGCCGTTATCGAGTAAACAAATTTTCCTAATCTTTCTGTTCAAGCGCCATCTAC”, which binding signal (RPM ratio (pull-down/input)) is on record?
**A.** The binding signal (RPM ratio (pull-down/input)) was 1.14.

**Q.** With “GATGATTGTTCTCCCAGCTGATGAATTGGGGGGTTCGAGTAAACAAATTTTCCTAATCTTTCTGTTCAAGCGCCATCTAC” as the sequence, how does the binding signal (RPM ratio (pull-down/input)) read?
**A.** The binding signal (RPM ratio (pull-down/input)) was 0.652.

**Q.** Which binding signal (RPM ratio (pull-down/input)) does the source give for “GATGATTGTTCTCCCAGCTGATGAATTTATTCAATCGAGTAAACAAATTTTCCTAATCTTTCTGTTCAAGCGCCATCTAC” here?
**A.** The binding signal (RPM ratio (pull-down/input)) was 0.42.

**Q.** “GATGATTGTTCTCCCAGCTGATGAATTTACCCTTTCGAGTAAACAAATTTTCCTAATCTTTCTGTTCAAGCGCCATCTAC” was tested. Which binding signal (RPM ratio (pull-down/input)) did it give?
**A.** The binding signal (RPM ratio (pull-down/input)) was 0.404.

**Q.** Which binding signal (RPM ratio (pull-down/input)) does the source give for “GATGATTGTTCTCCCAGCTGATGAATTGCCATGTTCGAGTAAACAAATTTTCCTAATCTTTCTGTTCAAGCGCCATCTAC” here?
**A.** The binding signal (RPM ratio (pull-down/input)) was 1.07.

**Q.** How did the binding signal (RPM ratio (pull-down/input)) turn out when “GATGATTGTTCTCCCAGCTGATGAATTTAGAACGTCGAGTAAACAAATTTTCCTAATCTTTCTGTTCAAGCGCCATCTAC” was run?
**A.** Its binding signal (RPM ratio (pull-down/input)) is 0.345.

**Q.** “GATGATTGTTCTCCCAGCTGATGAATTTTGTTTTTCGAGTAAACAAATTTTCCTAATCTTTCTGTTCAAGCGCCATCTAC” was tested. Which binding signal (RPM ratio (pull-down/input)) did it give?
**A.** Its binding signal (RPM ratio (pull-down/input)) is 7.43.

**Q.** “GATGATTGTTCTCCCAGCTGATGAATTGGAGTAATCGAGTAAACAAATTTTCCTAATCTTTCTGTTCAAGCGCCATCTAC” was tested. Which binding signal (RPM ratio (pull-down/input)) did it give?
**A.** Its binding signal (RPM ratio (pull-down/input)) is 0.455.

**Q.** With “GATGATTGTTCTCCCAGCTGATGAATTTTACCTTTCGAGTAAACAAATTTTCCTAATCTTTCTGTTCAAGCGCCATCTAC” as the sequence, how does the binding signal (RPM ratio (pull-down/input)) read?
**A.** Its binding signal (RPM ratio (pull-down/input)) is 0.319.

**Q.** For “GATGATTGTTCTCCCAGCTGATGAATTGGACGGTTCGAGTAAACAAATTTTCCTAATCTTTCTGTTCAAGCGCCATCTAC”, which binding signal (RPM ratio (pull-down/input)) is on record?
**A.** The binding signal (RPM ratio (pull-down/input)) was 0.3.

**Q.** With “GATGATTGTTCTCCCAGCTGATGAATTTCCCATTTCGAGTAAACAAATTTTCCTAATCTTTCTGTTCAAGCGCCATCTAC” as the sequence, how does the binding signal (RPM ratio (pull-down/input)) read?
**A.** Its binding signal (RPM ratio (pull-down/input)) is 0.27.

**Q.** “GATGATTGTTCTCCCAGCTGATGAATTCCTTTAATCGAGTAAACAAATTTTCCTAATCTTTCTGTTCAAGCGCCATCTAC” was tested. Which binding signal (RPM ratio (pull-down/input)) did it give?
**A.** The binding signal (RPM ratio (pull-down/input)) was 0.231.

**Q.** “GATGATTGTTCTCCCAGCTGATGAATTCCACTGTTCGAGTAAACAAATTTTCCTAATCTTTCTGTTCAAGCGCCATCTAC” was tested. Which binding signal (RPM ratio (pull-down/input)) did it give?
**A.** Its binding signal (RPM ratio (pull-down/input)) is 0.479.

**Q.** “GATGATTGTTCTCCCAGCTGATGAATTTTTCCGCTCGAGTAAACAAATTTTCCTAATCTTTCTGTTCAAGCGCCATCTAC” was tested. Which binding signal (RPM ratio (pull-down/input)) did it give?
**A.** The binding signal (RPM ratio (pull-down/input)) was 0.178.

**Q.** Which binding signal (RPM ratio (pull-down/input)) does the source give for “GATGATTGTTCTCCCAGCTGATGAATTGGGAAGCTCGAGTAAACAAATTTTCCTAATCTTTCTGTTCAAGCGCCATCTAC” here?
**A.** Its binding signal (RPM ratio (pull-down/input)) is 0.225.

**Q.** For “GATGATTGTTCTCCCAGCTGATGAATTTATAGTCTCGAGTAAACAAATTTTCCTAATCTTTCTGTTCAAGCGCCATCTAC”, which binding signal (RPM ratio (pull-down/input)) is on record?
**A.** The binding signal (RPM ratio (pull-down/input)) was 1.87.

**Q.** With “GATGATTGTTCTCCCAGCTGATGAATTGGTGGTCTCGAGTAAACAAATTTTCCTAATCTTTCTGTTCAAGCGCCATCTAC” as the sequence, how does the binding signal (RPM ratio (pull-down/input)) read?
**A.** Its binding signal (RPM ratio (pull-down/input)) is 1.23.

**Q.** Which binding signal (RPM ratio (pull-down/input)) does the source give for “GATGATTGTTCTCCCAGCTGATGAATTTTGTTAATCGAGTAAACAAATTTTCCTAATCTTTCTGTTCAAGCGCCATCTAC” here?
**A.** The binding signal (RPM ratio (pull-down/input)) was 2.7.

**Q.** How did the binding signal (RPM ratio (pull-down/input)) turn out when “GATGATTGTTCTCCCAGCTGATGAATTAAGTCGGTCGAGTAAACAAATTTTCCTAATCTTTCTGTTCAAGCGCCATCTAC” was run?
**A.** Its binding signal (RPM ratio (pull-down/input)) is 0.303.

Reference: PMC12820563
